According to the RNAGym collection of RNA variant scans (doi:10.1073/pnas.2313332121):
Variants at the background level are over-represented here.

B1: TPR 5TU (parent)
chain: GGAUCUUCUCGAUCUAACAAAAAAGACAAAUCUGCCACAAAGCUUGAGAGCAUCUUCGGAUGCAGAGGCGGCAGCCUUCGGUGGCGCGAUAGCGCCAACGUUCUCAACUAUGACACGCAAAACGCGUGCUCCGUUGAAUGGAGUUUAUCAUG

Variants of: B1
Test: polymerase ribozyme fitness, log enrichment relative to wild type (log ratio); higher = more active; in vitro selection for triplet polymerase activity
Outline: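 PCR was used to build mutant libraries for each subunit of a heterodimeric triplet polymerase ribozyme, which were then transcribed. A single in vitro selection round, in triplicate, used a frozen incubation at −7 °C and recovered extended constructs by gel excision, streptavidin beads and RT-PCR. Fitness is the logarithm of genotype enrichment relative to wild-type enrichment, averaged over replicates with inverse-variance weights. The logarithm is base 2, and after Illumina sequencing only genotypes with ≥10 input reads and ≥1 read per output were kept.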

Polymerase ribozyme fitness (log ratio), -4.05:
U6A C14G G34A C87U C105U U145G

Polymerase ribozyme fitness (log ratio), -2.06:
C5U A22C G83C C93U U101G C116A

Polymerase ribozyme fitness (log ratio), -0.0168:
C5U A22U C85A U135A

Polymerase ribozyme fitness (log ratio), -3.78:
U6A G83C A89U G136U A137G

Polymerase ribozyme fitness (log ratio), -0.724:
C5U U56A C57A C85G

Polymerase ribozyme fitness (log ratio), -4.19:
U6A A28G A73G C93G C99A C131A

Polymerase ribozyme fitness (log ratio), -2.18:
C5U A12C A40C U61A C95U

Polymerase ribozyme fitness (log ratio), -2.55:
C5G C93A

Polymerase ribozyme fitness (log ratio), -2.12:
C5U A20C G59A A60G C69A A98G

Polymerase ribozyme fitness (log ratio), -2.38:
C5G G84U

Polymerase ribozyme fitness (log ratio), -4.13:
C5U G46A U61G

Polymerase ribozyme fitness (log ratio), -1.41:
U6A G86U

Polymerase ribozyme fitness (log ratio), ≤ -4.2:
U6A C75G C93U A107G G133U
C5U U13A A19U A21C C85A A106U U127G
C5G C75U C85A G94A C99A C123A G143U
U6C A16U A24C A40G G50A C87G G100U A120C U135G G136U
C5G G11C U56A U78G G83A C129U
U6A U56G G62A U77G C99G G100U U139C
U6C A20U C75A C87A A121C U148G
U6A C27U U44G G48A U78A G81C G86A G140A G143C
U6A A19C A39U A52G C76U C85G A115U
C5U A29C G34A A37C U45G U61A C69A C87G
U6C A66C C72A U77C U82A U111C G126A
C5U C38A C75A G88C A91U C114U
U6A A22G U77A C116U C131U U145C
U6C A16U G42C G70C G92C U146A
C5U C18U A30C C35A C79A A91U A97C C99A
C5G C54G G70U U77G G84U C132U
C5U C32A A91U A97C
U6A C96A C129G C132A U148C
C5G G62U A66G G68C G92A U104G G140U
C5U A22U U44G C93G
C5G G59C A89U G92A C93U C95A G143C
C5U A64U C93U A138G
U6A A20C A28C C36U C54G
C5U A17G U53A G70A C79U C85U A98G
C5G U13C C51G G84C G126U U146A
C5U G25C C43G G65U C87A C95U
C5G C14U A20U C27A A28U C72A C95U C132U
U6A A29U G81A G92C C114U
C5G A64G G83U C118A A138G
C5U U31A A52C A91C C105G G133U U144A
U6C C10U A49U A121U
C5U C10G G84U C99G A147C
C5U C14G A21G A41C G42A U56C C72U G88A U104G
C5U C35A C54U C96U U104C
U6C A107U C116U U146A
U6A A52G G58A G71A C85G G126U U135G
C5G A47U C85U C87G
C5G U44A A60C G83U C105G G124U A142C U148G G152A
C5U A20U C57U G68A C72U G92A
C5G C32A C76A U109G G141C
C5U A12C C85A G92C C99G C105U
U6A U45A C51U G88U A115G U146G
C5U A17G G58A G83A U109C A115U
C5G C10A G11A A30U A49C C93U G136A
C5G A64G G86A A89G G136U U151A
C5G U6A C35A A49C U55A C76G C85A
C5U C10A A12G C85A C105U C132U U139A G143C
U6C C10G A37G C51U G94A G141A
U6A A21U A39C A60G C75A A97G U101A U134G
C5G C93A A110G U135A G152U
C5U U13A A17C C27G A28U A52C C85U A113C U127A U144G
C5G G58C A60G C63A C132U U135G
U6C C8A G67A G117A U130C C132G
U6C A19U G25C G50A C54G U56A C76U C93A G100A A106U G140A A147G
C5G C8A A19C C95U U102C
U6A A28C U31A A41U C51A C57G G59U G80A C103U
U6A C27G A41U C54U G84A C103U
C5U U6G G50U G58U C79A C93G
C5G A52G C87U C108G G117A
U6A C18U A20C A22C U44C U55A C87A
U6C C18U G59C A66U A73C U101G U139C U144A
C5G U15G C35G A98U A106U
C5G C51A C96G A107G
U6A A37U C85U C118U C149A
C5U U45A A66C C69G C87U
U6A A19G C38G U61A G94C C103G
U6A U53A G86A A91C G128C
C5G U6G A52U G65C C76U U78G C87A C103G U135A G140A
C5G G71U C114U C131G G133U C149A
U6A A28C G48A A64C C69U U109G A138C
U6C C36A C95U A98G A150U
C5G U55G C79G C85U U130G
C5U U6G A30C A47C G58A G59A C79U G92A
C5U A23U A24C G46A C96U A137U
U6A A16U G59A U77A A89U A113U G124A
C5G U53G G88C U102C U134A A150C
U6C C38U C57U G59C C95U A107G C114G
U6C C43A A49U C76U A91U G94A C114U A115U A119U
C5U A12G C32U A39U G84C G92A G117C G140C
C5U C8G A52U C87U U101G U127C
C5G C18G G65C A91C
C5G C35U G59C C87U G100U C125G G133A U145C
C5G A52G A60G C85A C95G A97G U102A C125A
U6A G62A C76A A91U A121U C123A A138C G141U
U6A C14U G65U A91G U148A
C5G A60U G74A C99A A138G A142G
C5U U33C U53C G80A G92U C108U A122G
C5G C32A C85U U134G
U6A A29G C51U C54A U56G C85U C118G
U6C A29U A41C G42U G59C C85U G100U A107G G124A
C5G G48A U61G G70C G83C G88C C131G A142C G143A
C5G C8A A49G G50A A137U U146C
C5G C27A A49C C79A A91U C105A
U6C C8A C14A A20U A28U A49G C95U C114U A119U G141U U151G
C5G C10U A23C G83A C99G U127C
C5G G34C C57U A66C C75U C95A C123A U134G G152A
C5U A37U G50A A60G G83C C85U G140C
C5G C54U A91U C93U G117A
U6A U53A G65C G83A C93U U139G
U6C A47C G48A U134G
C5U A29C G46C U90G C116U A150U
C5U C14G C93U G143C U148C
U6A A21C A41G A66C C75U C87U C95A U145G
C5G C27G A29U A40C G67C C96U C149G
U6A A20G U56A G88U U102A C103G C132A U146G
C5U U45A A47C G62U C69U
C5U G50A G68A G71U U77A C87U G143A
U6A U44A C87A A89U C96U
U6C A26C C36G G59C C85U A91C C125U C132U G143U
C5G U9G A19U A21C C85A U134C
U6A C75A G83A C114A
C5G A41C G58U G59U A64C G74U C75U C85A C96G U144C
U6C A40U A47C G92A A107G C116G
U6A G58A C76U G84U C87G
C5G C35U U77G C87A U104G
U6A C18U G50C A52U G86A C87U G88A U111G A150G
C5G C27U U45G C95U U101C C118A
U6A C96U A97U C103A C132U
U6A G50U A60U C75U C95U
C5U A16C G46C C85A A138C G152U
C5U A19G U61G G83C G92U C96A A119C G133U
C5G C14G A30C C54A G65C C85G C93G C116G
C5G U44A A47U G88U U135C
U6A C38U U61A U82C G86A G126A
C5G C10G A26C C93U A106G G140U
C5U A23C C35U C54U U77G G83A G92A C125G
U6C C35A U56A C72U A91C
U6A C51A C57U C76U C93A C123U C132G
C5G U55A G70C C85A C96U U151G
C5G C32U U55G G74U G83C A91G U145G A150U
C5U C105U A138U
U6A U13C A24C C51U A91G C108G U144A
U6C A40G A49G G83U G88A U101G
C5U A30G A52U C76G G94A C118U U148A
C5G G46C G59C U61G G70A G92A A121U
U6C A24U C35G G50A C93U G94A C99U A107U G117A A147C
U6A U44G A47G G71A
U6A A21U U31A G74A
U6A C51G C54A G80C A137C
C5G C32U A91G A115G
C5U A30U C57A G59A C75G
C5G G59A G71A G84A A91G
C5G C18G C35U G46A C87G U101A C129A U134G
C5U C57U A60C G62A G65A G152A
C5G C14G A22U G81C C118U U144C
U6C C10A A41U G48A G83C U111C
U6A C27A G68A C75G C95A G100A
C5G C43G G94A

Polymerase ribozyme fitness (log ratio), -3.18:
U6C C57U G83U G84U A121U

Polymerase ribozyme fitness (log ratio), -3.99:
C5U A91U

Polymerase ribozyme fitness (log ratio), -1.81:
C5G A52G G80A

Polymerase ribozyme fitness (log ratio), -1.02:
C5U A41U G83A

Polymerase ribozyme fitness (log ratio), -0.942:
U6A G58C G94A

Polymerase ribozyme fitness (log ratio), -0.841:
U6A G83C

Polymerase ribozyme fitness (log ratio), -0.907:
C5U A73G C85G
